The values below come from PMC4336329 (PLoS ONE, 2015).

Screen size: about 310,000 compounds; about 2,200 (0.71%) showed an effect of 50% or more. The effect is printed as a negative number. The list shows a part of the results.

Sequence of human ether-à-go-go-related gene (hERG) potassium channel (Q12809 whole entry, looked up): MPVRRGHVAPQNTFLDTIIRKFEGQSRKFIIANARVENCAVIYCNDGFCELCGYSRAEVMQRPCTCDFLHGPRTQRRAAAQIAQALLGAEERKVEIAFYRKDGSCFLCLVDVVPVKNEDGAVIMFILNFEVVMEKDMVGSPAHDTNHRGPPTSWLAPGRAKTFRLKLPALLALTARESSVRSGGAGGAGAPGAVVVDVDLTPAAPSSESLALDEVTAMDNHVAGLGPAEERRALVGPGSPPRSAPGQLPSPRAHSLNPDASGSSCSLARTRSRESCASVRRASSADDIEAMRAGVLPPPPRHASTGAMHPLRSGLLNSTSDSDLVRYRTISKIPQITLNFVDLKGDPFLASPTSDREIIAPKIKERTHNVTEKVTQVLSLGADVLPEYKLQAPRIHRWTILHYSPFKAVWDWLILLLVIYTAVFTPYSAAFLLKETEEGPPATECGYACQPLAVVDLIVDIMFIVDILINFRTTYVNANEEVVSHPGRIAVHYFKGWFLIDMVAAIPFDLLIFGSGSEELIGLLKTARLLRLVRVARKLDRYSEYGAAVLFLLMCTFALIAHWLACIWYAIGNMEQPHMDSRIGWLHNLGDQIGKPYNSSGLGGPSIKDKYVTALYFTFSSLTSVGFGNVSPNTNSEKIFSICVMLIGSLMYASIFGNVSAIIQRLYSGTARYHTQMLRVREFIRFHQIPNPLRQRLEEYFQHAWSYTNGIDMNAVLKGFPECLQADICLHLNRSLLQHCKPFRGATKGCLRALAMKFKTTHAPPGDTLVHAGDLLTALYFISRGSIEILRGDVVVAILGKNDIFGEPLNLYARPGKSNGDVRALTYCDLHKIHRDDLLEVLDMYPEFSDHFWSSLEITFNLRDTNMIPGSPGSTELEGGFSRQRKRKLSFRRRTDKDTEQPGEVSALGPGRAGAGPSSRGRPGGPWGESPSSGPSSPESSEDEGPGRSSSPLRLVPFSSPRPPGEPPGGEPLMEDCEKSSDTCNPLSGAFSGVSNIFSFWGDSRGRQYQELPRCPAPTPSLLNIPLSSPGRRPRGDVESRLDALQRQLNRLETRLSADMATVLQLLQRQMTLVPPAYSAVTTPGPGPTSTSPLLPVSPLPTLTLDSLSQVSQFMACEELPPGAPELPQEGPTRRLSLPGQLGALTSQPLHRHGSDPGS

This experiment addresses human ether-à-go-go-related gene (hERG) potassium channel (human, UniProt Q12809). The experiment is described as follows: primary screen, population patch clamp on CHO cells stably expressing hERG.
Take `CC1CCN(C(=O)CCNS(=O)(=O)c2ccc(Br)cc2)CC1`: the “hERG current change (%, negative = inhibition) at 1uM” value was 5.93%. Take `O=C(CSc1nnc(CNC(=O)c2c(F)cccc2Cl)o1)NC1CCCC1`: the “hERG current change (%, negative = inhibition) at 1uM” value was 19.8%.

Take `O=C(CCCc1nc(-c2ccccc2Cl)no1)NC1CCCC1`: the “hERG current change (%, negative = inhibition) at 1uM” value is reported as 12.6%.

Consider `Cn1nnnc1Sc1ccc([N+](=O)[O-])cc1Cl`, for which the “hERG current change (%, negative = inhibition) at 1uM” value is reported as 4.66%.

For `Cc1ccc(S(=O)(=O)NCc2ccc3c(c2)OCO3)cc1C`, the “hERG current change (%, negative = inhibition) at 1uM” value is recorded as 6.71%.

For the molecule `COc1ccc(NC(=O)c2ccsc2NC(C)=O)cc1`, the “hERG current change (%, negative = inhibition) at 1uM” value amounted to 14.6%.

`CCN1CCN(CC(=O)N2c3ccccc3Sc3ccccc32)CC1`: the “hERG current change (%, negative = inhibition) at 1uM” value is given as 22%. To `COc1ccc(NC(C)=O)cc1NC(=O)CSc1nnc(C2CCCCC2)n1N` belongs 8.45%. In the case of `CCOc1ccccc1-n1c(CNc2ccc(F)cc2)nnc1SCC(=O)NCc1ccco1`, the “hERG current change (%, negative = inhibition) at 1uM” value was -5.71%. To `CN(Cc1ccccc1)C(=O)c1[nH]cnc1C(=O)Nc1ccc(Cl)cc1` belongs 22.1%. To `COc1ccccc1OCc1ccc(C(=O)NC(C)(C)C)o1` belongs 11.1%. As for `CC(C)N1C(=O)C2(OCCCO2)c2cc(Br)ccc21`, the figure is 23.6%; as for `O=C(CC12CC3CC(CC(C3)C1)C2)NCO`, 8.9%. For the molecule `O=C(c1ccco1)N1CCN(CCOc2ccccc2)CC1`, the “hERG current change (%, negative = inhibition) at 1uM” value is 10.3%. As for `CC(Sc1ccccc1)C(=O)NCCc1ccccc1` (stereo not drawn), the figure is 9.22%; as for `Cc1cc2c(c(=O)n1CCc1ccccc1)C(c1ccco1)C(C#N)=C(N)O2` (stereo not drawn), 0.895%. To `CCOc1ccc(S(=O)(=O)Nc2cccc(C)c2)c2cccnc12` belongs 13.7%; to `COc1ccc(-n2c(Cc3cccn3C)nnc2SCC(=O)Nc2cccc(Cl)c2)cc1`, 3.32%.

Regarding `CC(=O)Nc1ccc(/C=C2/Sc3ccccc3C2=O)cc1`, the “hERG current change (%, negative = inhibition) at 1uM” value was determined as 16.4%. `Cn1c(SCC(=O)c2ccc3c(c2)OCCO3)nnc1C1CC1`: the “hERG current change (%, negative = inhibition) at 1uM” value is recorded as 8.32%. To `O=Cc1cn(-c2ccccc2)nc1-c1ccccc1` belongs 12%. As for `O=C(O)CC/C(=C\c1ccc2c(c1)OCO2)c1nc2ccccc2s1`, the figure is 10.6%; as for `Cc1ccc(OCc2nnc(SCC(=O)C(C)(C)C)n2Cc2ccco2)cc1`, -1.91%.

With `CC(=O)N1c2ccc(S(=O)(=O)NCCC(=O)Nc3ccc(C)c(F)c3)cc2CC1C` (stereo not drawn), the “hERG current change (%, negative = inhibition) at 1uM” value amounted to 9.62%. Take `CC(C)c1c(C(=O)N/N=C/C=C/c2ccccc2)nnn1-c1nonc1N`: the “hERG current change (%, negative = inhibition) at 1uM” value is listed as 23.1%. With `Cc1noc(N)c1C(=O)Nc1ccc(C(C)(C)C)cc1`, the “hERG current change (%, negative = inhibition) at 1uM” value is -5.42%.

In the case of `Cc1ccc(NC(=O)C2CCN(C(=O)[C@@H]3Cc4ccccc4CN3)CC2)cc1`, the “hERG current change (%, negative = inhibition) at 1uM” value is given as -19%. As for `O=C(CNC(=O)c1ccccc1F)N/N=C/c1cccs1`, the figure is 14.2%; as for `C/C(=N\NC(=O)c1ccco1)c1ccc(-c2ccccc2)cc1`, 4.99%. As for `COc1cccc(-c2nnc(SCC(=O)N3CCCc4ccccc43)o2)c1`, the figure is 8.75%; as for `O=C(Nc1cccc(-c2cn3ccsc3n2)c1)c1ccccc1`, 6.17%. To `CC(Oc1ccccc1)C(=O)NC1CCCCCCC1` (stereo not drawn) belongs 10.9%; to `CC(=O)c1ccc(N2CCN(S(=O)(=O)c3ccc(-c4cnc(C5CC5)o4)cc3)CC2)cc1`, 12.7%; to `N/C(=N/OCC(=O)Nc1cccc2ccccc12)c1nonc1N`, -0.926%. As for `CC(C)(C)N(NC(=O)Nc1ccccc1)C(=O)c1ccccc1`, the “hERG current change (%, negative = inhibition) at 1uM” value was determined as 11.9%. To `Cc1ccc(C)c(Oc2coc3cc(O)ccc3c2=O)c1` belongs 0.658%; to `COc1cc(F)ccc1S(=O)(=O)N1CCN(c2ccccc2)CC1`, 8.34%; to `Cc1ccc(CSCCNC(=O)c2ccc(NS(C)(=O)=O)cc2)cc1`, -6.66%. `COc1ccc(-c2nnc(NC(=O)C3CCCN3S(=O)(=O)c3cccs3)o2)cc1` (stereo not drawn): the “hERG current change (%, negative = inhibition) at 1uM” value is given as 10.3%. To `COc1ccc(CCNCC(=O)Nc2ccc(C)c(S(=O)(=O)N(C)C)c2)cc1.O=C(O)C(=O)O` belongs -7.32%; to `COc1cc(/C=N/O)cc(Br)c1OS(=O)(=O)c1ccc(C)cc1`, 8.96%.

For `CCOC(=O)c1c(C)[nH]c(C)c1S(=O)(=O)N(C)CC(=O)N1CCN(c2ccc(OC)cc2)CC1`, the “hERG current change (%, negative = inhibition) at 1uM” value is 1.58%. To `CCn1c(C)nc2cc(S(N)(=O)=O)ccc21` belongs 17.8%; to `CCCOC(=O)c1ccc(NC(=O)CCC(=O)OCC)cc1`, 5.04%. In the case of `CC(Oc1cccc(Cl)c1)C(=O)Nc1ccccc1N1CCCC1` (stereo not drawn), the “hERG current change (%, negative = inhibition) at 1uM” value was determined as 3.4%. To `CCOC(=O)c1[nH]c(=O)[nH]c1CNc1ccccc1C#N` belongs 16.1%; to `COc1ccc(-c2nc(CS(=O)(=O)CC(=O)Nc3ccc(Cl)cc3)c(C)o2)cc1`, 10.2%; to `COc1ccc(F)cc1S(=O)(=O)Nc1cccc(C(=O)O)c1`, 3.88%. With `COc1ccc(S(=O)(=O)N(C)C)cc1NS(=O)(=O)c1ccc(F)c(F)c1F`, the “hERG current change (%, negative = inhibition) at 1uM” value amounted to 10.6%. In the case of `CCOP(=O)(/C(C#N)=C(/O)c1ccccc1)c1ccccc1` (stereo not drawn), the “hERG current change (%, negative = inhibition) at 1uM” value is 13.6%. As to `Nc1cc(=O)[nH]c(SCC(=O)Nc2cc(Cl)ccc2Cl)n1`, the “hERG current change (%, negative = inhibition) at 1uM” value was 6.76%.

Regarding `COc1ccc(NC(=O)CSc2nnc3ccc(-c4ccncc4)nn23)cc1OC`, the “hERG current change (%, negative = inhibition) at 1uM” value came out at 5.11%. Consider `FC(F)(F)c1nnc2c(Sc3ccc(Cl)cc3)nc3ccccc3n12`, for which the “hERG current change (%, negative = inhibition) at 1uM” value is listed as 11.9%.

On to `Cc1ccc(C(C(=O)NC2CCCCC2)N(Cc2cccnc2)C(=O)c2csnn2)cc1` (stereo not drawn), for which the “hERG current change (%, negative = inhibition) at 1uM” value worked out at 1.4%. To `COc1cccc(C2C(C(=O)/C=C/c3ccco3)=C(O)C(=O)N2CCN2CCOCC2)c1` (stereo not drawn) belongs 10.5%; to `CNc1nc(CC(C)=O)ns1`, 6.99%; to `O=C(NCCc1c[nH]c2ccccc12)c1cc([N+](=O)[O-])cc([N+](=O)[O-])c1`, 3.96%. To `O=c1c2ccccc2nc(SCc2nnc(-c3ccccc3Br)o2)n1-c1ccccc1` belongs -2.2%; to `COCCN(C(=O)COC(=O)CCOc1ccccc1)c1c(N)n(Cc2ccccc2)c(=O)[nH]c1=O`, 14.9%; to `COc1cc(/C=N/NC(=O)c2cnn3c(C)cc(-c4ccccc4)nc23)ccc1O`, 5.69%.

For `O=C(NCCc1ccccc1)c1ccc(NC(=O)c2cccnc2)cc1`, the “hERG current change (%, negative = inhibition) at 1uM” value came to 8.3%. As for `Nc1ccc2nc(-c3cc(Cl)c(N)c(Cl)c3)[nH]c2c1`, the figure is 5.16%; as for `COc1ccc2c(c1)c1nnc(SCC(=O)N3C(C)CCCC3C)nc1n2C` (stereo not drawn), -4%. To `Cc1ccc(C)c(NC(=O)C(OC(=O)c2cnc(C)cn2)c2ccccc2)c1` (stereo not drawn) belongs 11%; to `O=C(CSC1=NCCS1)N1CCN(c2ccc(Cl)cc2)CC1`, -8.24%. To `Cc1ccc(C(C(=O)NC2CCCCC2)N2CCC3(CC2)OCCO3)cc1` (stereo not drawn) belongs 10.1%. On to `Cc1ccc(S(=O)(=O)N(CC(=O)Nc2ccccc2)C(=O)N2CCN(C)CC2)cc1`, for which the “hERG current change (%, negative = inhibition) at 1uM” value was 16.5%.

Consider `COc1ccc(C(C(=O)NC2CCCC2)N(C(=O)c2ccoc2C)c2cc(C)cc(C)c2)cc1` (stereo not drawn), for which the “hERG current change (%, negative = inhibition) at 1uM” value turned out to be 4.95%.

With `CN(C)S(=O)(=O)c1ccc(Cl)c(NC(=O)COC(=O)c2cc(-c3ccccc3)nc3ccccc23)c1`, the “hERG current change (%, negative = inhibition) at 1uM” value was found to be 13%. To `COc1cc(C(=O)Nc2ccc(S(=O)(=O)N3CCOCC3)cc2)c([N+](=O)[O-])cc1OC` belongs 19.5%; to `COc1ccc(CNC(=O)C(=O)NCCCn2ccnc2)cc1`, 18.9%; to `COc1ccc(NC(=O)CSCC(=O)Nc2nnc(C3CC3)s2)cc1`, 17.5%. To `COc1cc(-c2nc(C(=O)NC3CCN(Cc4ccccc4)CC3)cc3c2[nH]c2ccccc23)cc(OC)c1OC` belongs 7.8%; to `N#Cc1c(Nc2ccc(Cl)cc2)s[nH]c1=O`, 2.9%; to `Cc1cccc(N2CC(C(=O)Nc3nnc(SCCC4OCCO4)s3)CC2=O)c1` (stereo not drawn), 10.4%. As for `O=C(C[n+]1ccc(/C=N/O)cc1)N1CCCCC1.[Cl-]`, the figure is 15%. With `COc1ccc(C(=O)Nc2ccccc2C(=O)N(Cc2ccco2)C(C(N)=O)C(C)C)cc1` (stereo not drawn), the “hERG current change (%, negative = inhibition) at 1uM” value was 12.4%. Take `Cc1oc(-c2cccs2)nc1CN1CCN(Cc2ccc(F)c(F)c2)C(CCO)C1` (stereo not drawn): the “hERG current change (%, negative = inhibition) at 1uM” value is -18.2%. As for `COc1ccccc1NC(=O)Cn1nnc(-c2ccccc2NS(=O)(=O)c2ccccc2)n1`, the figure is 7.71%.

With `Cn1c(=O)n(C)c2cc(CN3C(=O)OC(C)(C)C3(C)O)ccc21` (stereo not drawn), the “hERG current change (%, negative = inhibition) at 1uM” value amounted to 10.4%. Turning to `CCOc1ccc(NS(=O)(=O)c2cc(C(=O)N3CCN(C(C)=O)CC3)ccc2Cl)cc1`, the “hERG current change (%, negative = inhibition) at 1uM” value stood at 13%. As for `O=C(c1ccc2c(=O)n(Cc3ccccc3)c(=S)[nH]c2c1)N1CCCC1`, the figure is 12.7%; as for `O=C(Cn1ncc(Cl)c(Cl)c1=O)NC1CCCCC1`, -7.92%; as for `CCOc1ccc(NC(=O)c2cnc3scc(C)n3c2=O)cc1`, 6.74%. To `Cc1ccc(CNC(=O)c2ccc(CS(=O)Cc3ccccc3Cl)o2)cc1` (stereo not drawn) belongs 15%; to `S=C(Nc1cccnc1)NC1CC2CCC1C2` (stereo not drawn), 16.5%. On to `CCCCOc1ccc(C(=O)Nc2cc(C)c(OCC(=O)N3CCOCC3)c(C)c2)cc1`, for which the “hERG current change (%, negative = inhibition) at 1uM” value is recorded as -2.41%.
